Laboratory results taken from paper PMC13083723 (Patterns, 2026).
Hit rate of the full screen: of about 5,400 compounds, about 190 (3.5%) showed an effect of 50% or more. The list shows a part of the results. Positions of bridges follow the written chain, without caps; N, C: chain ends. Non-standard residues stand in square brackets, D forms with d. Residues, ends and D or L forms follow the SMILES beside them. *: point of attachment. Heptanoyl(5-Me) = CCC(C)CCCC(=O)*; Dab = NCC[C@H](N)C(=O)O

These molecules were tested on Vero-E6 (assay: primary screen, phospholipidosis by LipidTOX staining; higher = more effect of the substance). Details: 10 µM.
Procedure, shortened: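 Single-concentration screen at 10 μM, with DMSO 0.1 v/v % and amiodarone 10 μM as controls. Read-out is LipidTOX Red phospholipid staining, which tolerates aldehyde fixation, in Vero-E6 cells.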
CCOc1ccccc1OCCN[C@H](C)Cc1ccc(OC)c(S(N)(=O)=O)c1 was tested, and the result_ITMP was 20.3%. Work on C[C@@H]1CCCN1CCc1cc2cc(-c3ccc(C#N)cc3)ccc2o1 yielded a result_ITMP of 66.8%. CCC(C)CCCC(=O)N[C@@H](CCN)C(=O)N[C@H](C(=O)N[C@@H](CCN)C(=O)N[C@H]1CCNC(=O)[C@H]([C@@H](C)O)NC(=O)[C@H](CCN)NC(=O)[C@H](CCN)NC(=O)[C@H](CC(C)C)NC(=O)[C@@H](CC(C)C)NC(=O)[C@H](CCN)NC1=O)[C@@H](C)O (stereo partly drawn) [R4A_0005175_001 / SPE_A36456202] ({Heptanoyl(5-Me)}-[Dab]T[Dab][Dab][Dab][dL]L[Dab][Dab]T; lactam 4-C) showed a result_ITMP of -0.45%. In the case of OC[C@H]1NCC[C@@H](O)[C@@H]1O, the result_ITMP is reported as -2.04%. For CC(=O)[C@H]1CC[C@H]2[C@@H]3CC[C@H]4C[C@H](O)CC[C@]4(C)[C@H]3C(=O)C[C@]12C, the result_ITMP was 0.24%. CCCCCCCCCCCCC[N+](C)(C)Cc1ccccc1 gave a result_ITMP of -2.95%. With CN(C)/N=N/c1ccc(C(=O)O)cc1 the result_ITMP was -2.68%. In the case of COc1ccc(Nc2ncnc3ccc(OC)cc23)cc1, the result_ITMP is reported as -9.56%. With CC[C@]1(O)C[C@@H]2C[N@@](CCc3c([nH]c4ccccc34)[C@@](C(=O)OC)(c3cc4c(cc3OC)N(C=O)[C@H]3[C@@](O)(C(=O)OC)[C@H](OC(C)=O)[C@]5(CC)C=CCN6CC[C@]43[C@@H]65)C2)C1 the result_ITMP was 1.05%. With CCn1cc(C(=O)O)c(=O)c2cnc(N3CCCC3)nc21 the result_ITMP was 7.42%. CCOc1cc(C=O)ccc1O was tested, and the result_ITMP was -6.4%. For CC(=O)Nc1c(I)c(C(=O)O)c(I)c(N(C)C(C)=O)c1I, the result_ITMP was 3.92%. With CC(C)(C)NC[C@H](O)c1ccc(O)c(CO)c1 the result_ITMP was -3.42%. Clc1ccccc1CNC[C@H]1CC[C@H](CNCc2ccccc2Cl)CC1 gave a result_ITMP of 111%. CN(C)C1CCN(C(=O)c2ccc(NC(=O)Nc3ccc(-c4nc(N5CCOCC5)nc(N5CCOCC5)n4)cc3)cc2)CC1 was tested, and the result_ITMP was -2.9%. In the case of CC(=O)O[C@]1(C(C)=O)CC[C@H]2[C@@H]3C=CC4=CC(=O)CC[C@]4(C)[C@H]3CC[C@@]21C, the result_ITMP is reported as -8.84%. Molecule COc1cc(C=O)c([N+](=O)[O-])cc1OC has a result_ITMP of -11.7%. Molecule CCCCNC(=O)NS(=O)(=O)c1ccc(C)cc1 has a result_ITMP of -2.32%. C[C@@H]1O[C@@H](O[C@H]2[C@H](Oc3cc(O)c(C(=O)CCc4ccc(O)cc4)c(O)c3)O[C@H](CO)[C@@H](O)[C@@H]2O)[C@H](O)[C@H](O)[C@H]1O gave a result_ITMP of -7%. C[C@@H]1CC(=O)c2c(ccc3c2C(=O)c2cccc(O)c2C3=O)C1 was tested, and the result_ITMP was -0.1%. O=C(O)c1cc(-c2ccc(F)cc2F)ccc1O was tested, and the result_ITMP was -2.89%. Work on Cc1cccc(-c2[nH]c(CNc3ccccc3F)nc2-c2ccc3ncnn3c2)n1 yielded a result_ITMP of -2.97%. Work on CCOC(=O)OC(C)OC1=C(C(=O)Nc2ccccn2)N(C)S(=O)(=O)c2ccccc21 (stereo not drawn) yielded a result_ITMP of -0.19%. O=C(Nc1c(Cl)cncc1Cl)c1ccc(OC(F)F)c(OCC2CC2)c1 was tested, and the result_ITMP was -1.64%. CC(=O)[C@H]1CC[C@H]2[C@@H]3C[C@H](C)C4=CC(=O)CC[C@]4(C)[C@H]3[C@@H](O)C[C@]12C was tested, and the result_ITMP was -3.27%. Cc1ccccc1/N=N/c1ccc(NC(=O)c2ccnn2C)c(C)c1 gave a result_ITMP of -3.95%. With CCCS(=O)(=O)Nc1ccc(F)c(C(=O)c2c[nH]c3ncc(-c4ccc(Cl)cc4)cc23)c1F the result_ITMP was -4.85%. In the case of C[C@H](CCC(=O)O)[C@H]1CC[C@H]2[C@@H]3C[C@H](O)[C@@H]4C[C@H](O)CC[C@]4(C)[C@H]3CC[C@]12C, the result_ITMP is reported as 1.59%. In the case of COc1ccc2nc(NC(=O)Nc3ccccc3)sc2c1, the result_ITMP is reported as -0.57%. In the case of CCC(=O)O[C@]1(C(=O)CCl)[C@@H](C)C[C@H]2[C@@H]3C[C@H](F)C4=CC(=O)C=C[C@]4(C)[C@@]3(F)[C@@H](O)C[C@@]21C, the result_ITMP is reported as 4.24%. Work on CC(C)Oc1ccc2c(=O)c3cc(C(=O)O)ccc3oc2c1 yielded a result_ITMP of -6.26%. N#Cc1c(-c2ccccc2)cc(-c2cc(Br)ccc2O)[nH]c1=O gave a result_ITMP of -1.86%. For Cc1c(C(=O)NN2CCOCC2)nn(-c2ccc(Cl)cc2Cl)c1-c1ccc(I)cc1, the result_ITMP was -3.78%. Work on O=C(c1cc(O)c(O)c(O)c1)c1ccc(O)c(O)c1O yielded a result_ITMP of 10.6%. C=C1C(=O)O[C@@H]2C[C@@]3(C)CCC[C@H](C)C3=C[C@H]12 gave a result_ITMP of 2.6%. For Nc1ncnc2c1c(-c1ccc(Cl)cc1)nn2-c1cccc(-c2cnnn2Cc2cccc(-c3ccccc3)c2)c1, the result_ITMP was 0.23%. With O=C(Nc1ccccc1C(=O)Nc1ccc(CCO)cc1)c1ccc([N+](=O)[O-])cc1 the result_ITMP was 0.34%. With Cc1cnc(CNC(=O)c2c(=O)c3ccc(N4CCCN(C)CC4)nc3n3c2sc2ccccc23)cn1 the result_ITMP was 5.49%. O=C(O)Cc1sc(-c2ccccc2)nc1-c1ccc(Cl)cc1 was tested, and the result_ITMP was -1.64%. CC(=O)OCC(=O)[C@@]12N=C(C)O[C@@H]1C[C@H]1[C@@H]3CCC4=CC(=O)C=C[C@]4(C)[C@H]3[C@@H](O)C[C@@]12C was tested, and the result_ITMP was 0.49%. C#CCN1C(C)=C(C(=O)OC)C(c2cccc([N+](=O)[O-])c2)C(C(=O)OCC)=C1C (stereo not drawn) was tested, and the result_ITMP was -8.73%. OCc1cc(C(O)CNCCCCCCOCCCCc2ccccc2)ccc1O (stereo not drawn) showed a result_ITMP of 20.5%. Molecule CN1C(=O)N(c2cc(Cl)cc(Cl)c2)C(=O)[C@@]1(C)Cc1ccc(Br)cc1 has a result_ITMP of -1.86%. Molecule CCCCc1ccc(C(N)=O)nc1 has a result_ITMP of 2.05%. N=C(N)NCCC[C@H](N)C(=O)O showed a result_ITMP of -5.83%. Cc1nc2n(c(=O)c1CCN1CCC(c3noc4cc(F)ccc34)CC1)CCCC2 gave a result_ITMP of 6.64%. CNCCC(Oc1ccc(C(F)(F)F)cc1)c1ccccc1 (stereo not drawn) showed a result_ITMP of 54.3%. Work on CCC(=O)O[C@@H](OP(=O)(CCCCc1ccccc1)CC(=O)N1C[C@H](C2CCCCC2)C[C@H]1C(=O)[O-])C(C)C (stereo partly drawn) yielded a result_ITMP of -3.03%. In the case of C[C@@H](CN1CC(=O)NC(=O)C1)N1CC(=O)NC(=O)C1, the result_ITMP is reported as -2.06%. With O=C(C[C@H]1NCCC[C@@H]1O)Cn1cnc2cc(Br)c(Cl)cc2c1=O (racemic) the result_ITMP was -8.46%. CC(=O)Nc1ccc(CC(=O)O)cc1 showed a result_ITMP of -1.98%. Work on CN1C(=O)C(F)=C[C@]2(C)[C@H]3CC[C@]4(C)[C@@H](C(=O)NCc5nc6cccnc6[nH]5)CC[C@H]4[C@@H]3CC[C@@H]12 yielded a result_ITMP of -2.39%. With Nc1c(-c2cccc(C(F)(F)F)c2)nsc1C(=O)O the result_ITMP was -1.44%. C/N=c1/nc(-c2ccccc2)n(-c2ccccc2)s1 showed a result_ITMP of -1.31%. With Nc1ncnc2c1c(-c1cnc3[nH]ccc3c1)nn2C1CCCC1 the result_ITMP was 3.22%. Molecule Cc1c[nH]c(=O)n(CCCN2CCN(c3ccccc3OCC(F)(F)F)CC2)c1=O has a result_ITMP of -1.42%. CC1=NN=C(c2ccc(N)cc2)c2cc3c(cc2C1)OCO3 was tested, and the result_ITMP was -5.77%. COc1ccc2cc1Oc1ccc(cc1)C[C@H]1c3cc(c(OC)cc3CCN1C)Oc1c(OC)c(OC)cc3c1[C@H](C2)N(C)CC3 gave a result_ITMP of 17.4%. CCOCCOc1ccccc1C(N)=O was tested, and the result_ITMP was -0.1%. C[C@]12C/C(=C/O)C(=O)C[C@@H]1CC[C@@H]1[C@@H]2CC[C@@]2(C)[C@H]1CC[C@]2(C)O was tested, and the result_ITMP was 3.4%. With O=C1CCc2cc(OCCCCc3nnnn3C3CCCCC3)ccc2N1 the result_ITMP was -1.79%. CC(=O)N1CCC(C(=O)N(CCCN2CCC(Cc3ccc(C(N)=O)cc3)CC2)c2ccc(C)c(Cl)c2)CC1 showed a result_ITMP of -1.51%. N#C[C@@H]1C[C@@H]2C[C@@H]2N1C(=O)[C@@H](N)C12CC3CC(CC(O)(C3)C1)C2 showed a result_ITMP of -6.61%. With CCS(=O)(=O)CCn1c([N+](=O)[O-])cnc1C the result_ITMP was -5.29%. For CC[C@H]1OC(=O)[C@H](C)C(=O)[C@H](C)[C@@H](O[C@@H]2O[C@H](C)C[C@H](N(C)C)[C@H]2O)[C@](C)(OC)C[C@@H](C)C(=O)[C@H](C)[C@H]2N(CCCCn3cnc(-c4cccnc4)c3)C(=O)O[C@]12C, the result_ITMP was 4.79%. Molecule CCCCOc1cc(C(=O)NCCN(CC)CC)c2ccccc2n1 has a result_ITMP of 47.8%. Molecule CC(C)(C)NCC(O)c1cc(Br)no1 (stereo not drawn) has a result_ITMP of 0.54%. Oc1ccc(-c2nc3cc(O)cc(Br)c3o2)cc1 was tested, and the result_ITMP was -1.8%. C1=Cc2cccc(OCC3CNCCO3)c2C1 (stereo not drawn) gave a result_ITMP of 25.4%. CC[C@]1(O)C[C@@H]2C[N@@](CCc3c([nH]c4ccccc34)[C@@](C(=O)OC)(c3cc4c(cc3OC)N(C)[C@H]3[C@@](O)(C(=O)OC)[C@H](OC(C)=O)[C@]5(CC)C=CCN6CC[C@]43[C@@H]65)C2)C1 showed a result_ITMP of 8.57%. CCC(C)SSc1ncc[nH]1 (stereo not drawn) showed a result_ITMP of -2.3%. With CC1(C)S[C@@H]2[C@H](NC(=O)C(C(=O)[O-])c3ccsc3)C(=O)N2[C@H]1C(=O)[O-] (stereo partly drawn) the result_ITMP was -2.7%. Cc1coc2c1C(=O)C(=O)c1c-2ccc2c(C)cccc12 was tested, and the result_ITMP was -3.59%. In the case of O=C(O)[C@H]1C[C@@H](CP(=O)(O)O)CCN1, the result_ITMP is reported as -3.97%. Molecule COc1ccccc1-c1c[nH]c2ncc(-c3cncc(C(=O)N(C)C)c3)cc12 has a result_ITMP of -2.09%. CCC1=C(C)CN(C(=O)NCCc2ccc(S(=O)(=O)NC(=O)N[C@H]3CC[C@H](C)CC3)cc2)C1=O was tested, and the result_ITMP was 7.17%. O=C(O)c1ccccc1-c1ccc(C(F)(F)F)cc1 gave a result_ITMP of -4.47%. Nc1ncnc2c1ncn2CCOCP(=O)(O)O gave a result_ITMP of -5.15%. For CNc1ccc([N+](=O)[O-])cc1-n1cnc(-c2ccc(C(F)(F)F)cc2)c1, the result_ITMP was 3.84%. Cc1cc(C)c(NC(=O)C2CC3CCC2C3)c(C)c1 (stereo not drawn) gave a result_ITMP of -9.32%. CCOC(=O)[C@H](C)C[C@@H](Cc1ccc(-c2ccccc2)cc1)NC(=O)CCC(=O)[O-] was tested, and the result_ITMP was 0.47%.
